# Measured values reported in article PMC4336329 (PLoS ONE, 2015).
# The whole screen tested about 310,000 compounds, of which about 14,000 (4.5%) showed an effect of 50% or more. The effect is printed as a negative number. Some of the results follow.
# Target: human ether-à-go-go-related gene (hERG) potassium channel (human, UniProt Q12809)
# Assay: primary screen, population patch clamp on CHO cells stably expressing hERG
# 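Note: peak tail current of the secondary pulse compared with the same well before compound.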
# Sequence of human ether-à-go-go-related gene (hERG) potassium channel (Q12809 whole entry, looked up): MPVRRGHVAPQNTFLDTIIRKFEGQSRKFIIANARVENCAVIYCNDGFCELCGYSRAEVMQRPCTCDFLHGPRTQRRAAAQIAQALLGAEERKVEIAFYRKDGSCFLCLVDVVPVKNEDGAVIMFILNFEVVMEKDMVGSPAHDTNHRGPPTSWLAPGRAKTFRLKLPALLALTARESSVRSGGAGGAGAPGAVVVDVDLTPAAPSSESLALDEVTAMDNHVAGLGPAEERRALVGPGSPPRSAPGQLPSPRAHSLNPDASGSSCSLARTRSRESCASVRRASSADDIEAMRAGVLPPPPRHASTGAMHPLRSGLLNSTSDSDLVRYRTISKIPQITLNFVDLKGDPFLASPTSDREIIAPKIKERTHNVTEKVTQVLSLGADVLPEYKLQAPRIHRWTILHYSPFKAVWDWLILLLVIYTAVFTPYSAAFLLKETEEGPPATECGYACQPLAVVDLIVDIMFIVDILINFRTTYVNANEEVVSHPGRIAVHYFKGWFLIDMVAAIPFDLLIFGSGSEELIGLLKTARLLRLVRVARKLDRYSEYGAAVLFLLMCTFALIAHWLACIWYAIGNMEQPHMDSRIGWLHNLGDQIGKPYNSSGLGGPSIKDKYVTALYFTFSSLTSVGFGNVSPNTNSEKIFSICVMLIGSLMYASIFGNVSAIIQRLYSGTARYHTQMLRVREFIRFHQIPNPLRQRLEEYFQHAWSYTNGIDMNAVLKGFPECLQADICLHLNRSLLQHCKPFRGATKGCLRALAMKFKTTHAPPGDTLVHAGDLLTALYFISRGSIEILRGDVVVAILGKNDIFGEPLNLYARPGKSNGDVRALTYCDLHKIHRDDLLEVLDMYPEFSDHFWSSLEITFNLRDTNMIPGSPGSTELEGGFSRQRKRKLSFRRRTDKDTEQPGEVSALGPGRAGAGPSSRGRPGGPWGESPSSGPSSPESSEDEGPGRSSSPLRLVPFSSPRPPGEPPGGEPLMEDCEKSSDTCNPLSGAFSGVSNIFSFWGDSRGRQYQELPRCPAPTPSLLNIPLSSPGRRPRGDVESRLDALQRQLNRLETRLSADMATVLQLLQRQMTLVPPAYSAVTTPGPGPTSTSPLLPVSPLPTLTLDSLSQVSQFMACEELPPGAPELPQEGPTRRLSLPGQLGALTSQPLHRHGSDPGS
row,Compound,"hERG current change (%, negative = inhibition) at 10uM [%]"
1,COc1ccc(C2C(C#N)=C(N)Nc3nc4ccccc4n32)cc1 (centres unmarked),0.0675
2,Cc1c(C)c2ccc(OC(C)C(=O)NC3CCN(Cc4ccccc4)CC3)cc2oc1=O (centres unmarked),-54.2
3,O=C(O)CCc1cccnc1,7.55
4,CCOC(=O)c1cccc(NC(=O)c2ccc(NC(=O)C3CCCO3)cc2)c1 (centres unmarked),-22.1
5,Cc1oc2c(O)c(O)ccc2c(=O)c1-c1ccc(Cl)cc1,-11.3
6,Cc1c(NC(=O)c2ccc(=O)oc2)c(=O)n(-c2ccccc2)n1C,11.8
7,O=C(CCc1nc(-c2ccccc2F)no1)NCCc1ccccc1Cl,-14.8
8,COc1ccc(S(=O)(=O)N2CCCC2C(=O)NCc2ccccc2Cl)cc1 (centres unmarked),-12.4
9,O=C(O)c1ccc(CSc2nnc(COc3ccccc3)o2)cc1,8
10,Cc1ccc(C)c(-n2nnnc2SCC(=O)NNC(=O)c2ccco2)c1,3.28
11,C=CCc1ccccc1OCC(=O)OCCNC(=O)c1cccnc1.Cl,5.92
12,COc1ccc(/C=C2\C(=O)NCC(=O)N2Cc2ccccc2)cc1,4.69
13,Cc1cccc(/C=N\NC(=O)c2ccccc2-n2cccc2)c1,15.3
14,O=C(CSc1nnc(Cn2c(=O)sc3ccccc32)n1CCc1ccccc1)N1CCOCC1,-5.81
15,CCOC(=O)c1sc(=S)n(-c2ccc3c(c2)OCO3)c1N,10.3
16,O=C(COc1cccnc1[N+](=O)[O-])N1CCN(S(=O)(=O)c2ccccc2)CC1,-12.2
17,COc1ccccc1N1CCN(C(=O)C2CCN(S(=O)(=O)c3ccc(Cl)cc3)CC2)CC1,-39.5
18,Cc1nc2ccc(C(=O)Nc3cccc([N+](=O)[O-])c3)cc2s1,3.71
19,Cc1nn(CC(=O)NCCc2cccs2)c(=O)c2nn(-c3ccccc3)c(C)c12,-7.67
20,CCOc1ccc(NC(=S)N(C)C)cc1,10.8
21,CCCCn1nc(C)c(C(=O)O)c1Cl,13.2
22,Cc1nn(-c2ccccc2)c(N2CCCC2)c1C=O,2.49
23,Cc1ccsc1C(=O)OCc1nc2ccccc2c(=O)[nH]1,-14.2
24,COc1ccc(NC(=O)CN(C)C(=O)c2cccc(S(=O)(=O)N3CC4(C)CC3CC(C)(C)C4)c2)cc1 (centres unmarked),7.23
25,Nc1cccc2c1C(=O)N(C(=O)c1cccc(S(=O)(=O)N3CCCC3)c1)C2=O,-0.76

row,Compound,"hERG current change (%, negative = inhibition) at 10uM [%]"
1,COc1ccc(Cl)cc1N(CC(=O)N1CCN(Cc2ccccc2)CC1)S(C)(=O)=O,-7.28
2,COc1ccc(N(CC(=O)NCCc2ccccc2)C(=O)c2csnn2)cc1OC,11.1
3,Cc1ccc(OCC(=O)N(Cc2cccc(F)c2)C2CCS(=O)(=O)C2)cc1 (centres unmarked),-16.8
4,CCOC(=O)C1=CC[C@]2(C)c3c(c4ccccc4n3C)C(=O)C1N2C,21.7
5,Br.Cc1c(-c2ccc(O)cc2)nc2nc(-c3ccccc3)c(-c3ccccc3)nn12,7.29
6,CSc1sc(C)cc1C1C(C#N)=C(N)N(c2cccnc2)C2=C1C(=O)CCC2 (centres unmarked),-21.7
7,CCC(NC(=O)CCc1c(C)c2cc3c(-c4ccccc4)coc3cc2oc1=O)C(=O)O (centres unmarked),6.68
8,CCOC(=O)C1=C(CSc2nc(-c3ccncc3)ccc2C#N)OC(N)=C(C#N)C1c1cccnc1 (centres unmarked),-47.2
9,COc1ccccc1-n1cnnc1SCC(=O)Nc1ncc(Cl)cc1Cl,-0.265
10,CCc1ccc(CN2CCC(C(=O)Nc3cccc(-c4nnc(C)s4)c3)CC2)o1,-33.6
11,COc1ccc(N2C(=O)NC(NS(=O)(=O)c3ccc(NC(C)=O)cc3)(C(F)(F)F)C2=O)cc1 (centres unmarked),10.3
12,O=C(CS(=O)(=O)c1ccc(F)cc1)NCc1ccccc1,24.5
13,Cc1ccc(C)c(NC(=O)NNC(=O)c2cc3occc3[nH]2)c1,18.3
14,CCOC(=O)N1CCC(n2c(SCC(=O)c3ccccc3)nc3ccsc3c2=O)CC1,-10.1
15,CC(=O)N1CCN(Cc2nc3cc(Cl)ccc3c(=O)[nH]2)CC1,-31.7
16,O=C(CSc1nnc(CCCOc2ccc(Cl)cc2Cl)o1)Nc1ccc(C(=O)O)cc1,15.2
17,CC1CCCCN1Cc1c(C#N)c2ccccc2n1C (centres unmarked),0.574
18,CCCc1cc(=O)[nH]c(SCCN2C(=O)c3ccccc3C2=O)n1,-3.72
19,O=C(c1cccc(Br)c1)N1CCN(S(=O)(=O)N2CCCCC2)CC1,-15.9
20,COc1ccc(C(=O)Nc2nc3ccccc3s2)c(OC)c1,15.6
21,COc1ccccc1N(CCC#N)C(=O)COC(=O)CCC(=O)c1ccc(F)cc1,-2.98
22,COc1ccc(OC)c(NC(=O)c2ccccc2NC(=O)c2ccco2)c1,-75.6
23,CCCn1c(-c2ccccc2)nc2c(=O)n(C)c(=O)[nH]c21,-4.43
24,CC(CCc1ccccc1)NC(=O)C1CCC1 (centres unmarked),-1.35
25,Cc1ccc(C(c2nnnn2C(C)(C)C)N2CCN(C3CCCC3)CC2)cc1 (centres unmarked),-12.8

row,Compound,"hERG current change (%, negative = inhibition) at 10uM [%]"
1,Cc1nnc(SCC(=O)Nc2cccc(S(=O)(=O)N3CCCCC3)c2)s1,-27.4
2,C=CCN1C(=O)C(C(C)CC)NC1=S (centres unmarked),-6.42
3,O=C(O)c1ccccc1OCCOc1ccccc1,3.63
4,COc1ccc(OC)c(CCNC(=O)CCc2nnc3ccc(N4CCCC4)nn23)c1,-23.9
5,Cc1cc(C)cc(N2CN=C3SCC(=O)N3C2)c1,-11.4
6,CCN1CCN(C(=O)c2ccc(OC)c(S(=O)(=O)Nc3ccc(C)cc3)c2)CC1,-18.4
7,CCCc1ccccc1OCCNS(=O)(=O)c1cc2c(cc1C)OCC(=O)N2,1.01
8,Cn1nc(N)c2c(-c3ccccc3)c(C#N)c(N)nc21,7.4
9,COc1ccccc1C(=O)Nc1ccc2c(c1)CC1(C(=O)N(C)C(=O)N(C)C1=O)C1CCCN21 (centres unmarked),-26.9
10,CCCc1cc(=O)oc2cc(OCC(=O)NCc3ccccn3)ccc12,-12.4
11,Cc1ccc(S(=O)(=O)N2CCOCC2)cc1C(=O)NCc1ccc2c(c1)OCO2,-27.6
12,O=C(Oc1coc(CSc2ncccn2)cc1=O)c1ccccc1[N+](=O)[O-],14.4
13,COc1cc2c(cc1OC)CN(Cc1cc(=O)oc3cc(C)c(C)cc13)CC2,-37.6
14,CC1=NN(C(N)=S)C(=O)C1N=Nc1cccc2ccccc12 (centres unmarked),25.4
15,Cc1cc(C)cc(C(=O)NCc2ccc3c(c2)OCO3)c1,16.2
16,Cc1ccccc1C1=NC(c2ccc(F)cc2F)ON1 (centres unmarked),-4.54
17,O=C(NCc1cccs1)c1noc2c1CCCC2,-2.52
18,O=C(CCCCCN1C(=O)[C@@H]2Cc3ccccc3CN2C1=O)Nc1ccccc1Cl,-15.5
19,O=C(Nc1ccccc1NS(=O)(=O)c1ccc(F)cc1)C1CCC1,11.3
20,COc1ccc(-n2c(C)nc3c(cnn3-c3ccc(Cl)cc3)c2=O)cc1,3.26
21,COC(=O)c1cnn2c(C)c(Cc3cccc(F)c3)c(C)nc12,-10.4
22,O=C(c1ccc(S(=O)(=O)N2CCOCC2)cc1)N1CCN(c2ccccc2)CC1,-15.7
23,CN=Cc1sc2ccccc2c1O,3.96
24,CS(=O)(=O)N1CCc2cc(C(=O)N3CCN(c4ccccc4)CC3)ccc21,-4.75
